# From the RNAGym collection of RNA variant scans (doi:10.1101/gad.245936.114)
# Variants at the floor of the assay are shown more often than the library holds them.
# B1: tRNA (parent)
# chain: CUCUCGGUAGCCAAGUUGGUUUAAGGCGCAAGACUUUAAUUUAUCACUACGAAAUCUUGAGAUCGGGCGUUCGACUCGCCCCCGGGAGAUUUUUUCCUCGAGCAA
# Variants of: B1
# Assay: nonsense suppression (GFP-seq) (ratio to wild type); higher = more function; SUP4oc tRNA, yeast GFP reporter sort-seq
# How it was run: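 Yeast carrying genome-integrated SUP4oc tRNA variants from a library with ~3% random mutations were grown in raffinose/galactose medium with 80 mg/L adenine. Each strain also carried a galactose-driven GFP ochre reporter and RFP. Cells were sorted into GFP/RFP bins, and each bin was Illumina-sequenced (phred ≥30). Nonsense suppression (GFPSEQ) is the bin median GFP/RFP, weighted by each variant's estimated cell share per bin, relative to wild-type SUP4oc; variants needed ≥100 reads and ≥30 cells.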
row,Variant,nonsense suppression
1,CUCUUUGUAGCGAAGUUGGUUUUAGGCGCAAGACUUUAAUUUAUCACUACGAAAUCUUGAGAUCGGGCGUUCGACUCGCCCCCGGGAUAUUUUUUCCUCGAGCAA [C5U G6U C12G A23U G88U],≤ 0.026
2,CUCUUGGUAGCCAAGUUGGUUUAAGGCGCAAGACUUUAAUUUAUCACUACGAAAUCUUGAGAUCGGGCGUUCGAUUCGCCCCCGGGAGAUUUUUUCCUCGAGCAA [C5U C75U],0.0347
3,CUCUUGGUAGCCAAGUUGGUUUAAGCCGCAUGAAUUUAAUUUAUCACUACGAAAUCUUGAGAUCGGGCGUUCGACUCGCCCCCGGGAGAUUUUUUCCUCGAGCAA [C5U G26C A31U C34A],≤ 0.026
4,CUCUUGGUAGCCAAGUUGGUUUAAGGCGCAAGACUUUAAUUUAUCACUACGAAAUCUUCAGAACGGGCGUUCGACUCGCACCCGGGAGAUUUUUUCCUCGAGCAA [C5U G59C U63A C80A],≤ 0.026
5,CUCUUGGUAGCCAAGUUCGUUUAAGGCGCAGGACUUUAAUUUAUCACUACGAAAUCUUGAGAUCGGGCGUUCGACUCGCCCCCGGGAGAUUUUUUCCUCGAGCAA [C5U G18C A31G],≤ 0.026
6,CUCUUGCUAGCCAAGUUGGUUUAAGGCGCAAGACUUUAAUUUAUCACUACGAAAUCUUGACAUCGGGCGUUCGACUCGCCCCCGGGAGAUUUUUUCCUCGAGCAA [C5U G7C G61C],≤ 0.026
7,CUCUUGGUAGCCAAGUUGGUUUAAGGCGCAAGACUUUAAUUUAUCACUACGAAAUCUUGAAAUCGGGCGUUCGACUCGCCCCCGGAAGAUUUUUUCCUCGAGCAA [C5U G61A G86A],≤ 0.026
8,CUCUUUGUAGCCAAGUUGGUUUAAGGCGCAAGACUUUAAUUUAUCACUACGAAAUCUUGAGUUCGGGCGUUCGACUCGCCCCCGGGAGAUUUUUUCCUCGAGCAA [C5U G6U A62U],≤ 0.026
9,CUCUUGGUAGCCAAGUUGGUUUAAGGCGCAAGACUUUAAUUUAUCACUACGAAAUCUUGAGAUCGGGCGUUCCACUCGCCCCCGGGAGAUUUUUUCCUCGAGCAA [C5U G73C],≤ 0.026
10,CUCUUGGUAGCCAACUUGGUUUAAGGCGCAGGACUUUAAUUUAUCACUACGAAAUCUUGAGAUCGGGCGUUCGACUCGCCCCCGGGAGAUUUUUUCCUCGAGCAA [C5U G15C A31G],≤ 0.026
11,CUCUUGGUAGCCAAGGUGGUUCAAGGCGCAAGACUUUAAUUUAUCACUACGAAAUGUUGAGAUCGGGGGUUCGACUCGCCCCCGGGAGAUUUUUUCCUCGAGCAA [C5U U16G U22C C56G C68G],≤ 0.026
12,CUCUUGGUAGCCAAGUUGGUUUAAGGCGCAAGACUUUAAUUUAUCACUACGAAAUCUUGAGAUCGGGCGUUCGACUCGCCCCCGGAAGAUUUUUUCCUCGAGCAA [C5U G86A],≤ 0.026
13,CUCUUGGUAGCCAAGUUGGUUUAAGGCGCAAGACUUUAAUUUAUCACUACGAAAUCUUGAGAUCGGGCGUUCGACUCGUCCCCGGGAGAUUUUUUCCUCGAGCAA [C5U C79U],0.0439
14,CUCUUGGUAGCCAAGUUGGUUUAAGGCGCAAGACUUUAAUUUAUCACUACGAAAUCUUGAGAUCGGGCGUUCGACUCGCCCCAGGGAGAUUUUUUCCUCGAGCAA [C5U C83A],≤ 0.026
15,CUCUUGGUAGCCAAGUUGGUUUAAGGCGCAAGACUUUAAUUUAUCACUACGAAAUCUUGAGAUCGGGCGUUCGACUCGCCCCCGGGACAUUUUUUCCUCGAGCAA [C5U G88C],≤ 0.026
16,CUCUUCGUAGCCAAGUUGGUUUAAGGCGCAAGACUUUAAUUUAUCACUACGAAAUCUUGAGCUCGGGCGUUCGACUCGCCCCCGGGAGAUUUUUUCCUCGAGCAA [C5U G6C A62C],≤ 0.026
17,CUCUUGAUAGGCAAGUUGGUUUAAGGCGCAAGACUUUAAUUUAUCACUACGAAAUCUUGAGAUCGGGCGUUCGACUCGCCCCCGGGAGAUUUUUUCCUCGAGCAA [C5U G7A C11G],≤ 0.026
18,CUCUUGGUAGCCAAGUUGGUUUAAGGCGCAAAACUUUAAUUUAUCACUACGAAAUCUUGAGAUCGGGCGUUCGACCCGCCCCCGGGAGAUUUUUUCCUCGAGCAA [C5U G32A U76C],≤ 0.026
19,CUCUUGGUAGCCAAGUUGGUUUAAGGCGCAAGAUUUUAAUUUAUCACUACGAAAUCUGGAUAUCGGGCGUUCGACUCGCCCCCGGGAGAUUUUUUCCUCGAGCAA [C5U C34U U58G G61U],≤ 0.026
20,CUCUUGGACCCUAAGUUGGUUUAAUGCGCAGGACUUUAAUUUAUCACUACGAAAUCUUGAGAUCGGGCGUUCGACUCGCACCCGGGAGAUUUUUUCCUCGAGCAA [C5U U8A A9C G10C C12U G25U A31G C80A],≤ 0.026
21,CUCUUGGUAGCCAAGCUGGUUUAAGGCGAAAGACUUUAAUUUAUCACUACGAAAGCUUGAGAUCGGGCGUUCGACUCGCCCCCGGGAGAUUUUUUCCUCGAGCAA [C5U U16C C29A U55G],≤ 0.026
22,CUCUUGGUAGCCAAGUUGAUUUAAGGCGCAAGACUUUAAUUUAUCACUACGAAAUCUUGAGAUCGGGCGUUCGACUCGCCCCCGGGAGAUUUUUUCCUCGAGCAA [C5U G19A],≤ 0.026
23,CUCUUCGUAGCCAAGUUGGUUUAAGGCGGAAGACUUUAAUUUAUCACUACGAAAUCUUGAGAUCGGGCGUUCGACUAGCCCCCGGGACAUUUUUUCCUCGAGCAA [C5U G6C C29G C77A G88C],≤ 0.026
24,CUCUUGGUAGCCAAGUUGGUUUAAGGCGCAAGAGUUUAAUUUAUCACUACGAAAUCUUGAGAUCGGGCGUUCGACUCGCCCCCGGGAGAUUUUUUCCUCGAGCAA [C5U C34G],≤ 0.026
25,CUCUUGGUAGCCAAGUUGGUUUAAGGCGCAAGACUUUAAUUUAUCACUACGAAAUCUUAAGAUCGCGCGUUCGACUCGCCCCCGGGAGAUUUUUUCCUCGAGCAA [C5U G59A G66C],≤ 0.026
26,CUCUUGGUAGCCAAGUUGGUUUAAAGCGCAAGACUUUAAUUUAUCACUACGAAAUCUUGAGAUCGGGCGUUCGACUCGCCCCCGGGAGAUUUUUUCCUCGAGCAA [C5U G25A],≤ 0.026
27,CUCUUGGUAGCCAAGUUGGUUUAACGCGCAAGACUUUAAUUUAUCACUACGAAAUCUUGAGAUCGGGCGUUCGACUCGCCCCCGGGAGAUUUUUUCCUCGAGCAA [C5U G25C],≤ 0.026
